The text below walks through data of PubChem BioAssay (NCI).

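Assay format: 96-well plates, 48-hour exposure. The concentration for 50% growth inhibition is given as GI50. TGI: total growth inhibition.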

For the experiment, the system named is NCI-H322M lung. The experiment in a line: DTP human tumour cell line panel, 48 h.

Broadly, the TGI is the concentration at which net growth stops. Low values mean greater sensitivity of the cells, high ones lower sensitivity of the cells. A word on the GI50: it is the concentration giving 50% growth inhibition.

In the case of `N#Cc1c([N+](=O)[O-])cc(C(F)(F)F)cc1[N+](=O)[O-]`, the TGI worked out at 31.3 µM.

With `Cn1cc(-c2ccc3cc(-c4ccc(CC(=O)Nc5cc(C(C)(C)C)nn5C)cc4)cnc3c2)cn1`, the GI50 is 0.162 µM and the TGI is greater than 100 µM.

`COc1cc(/C=C2\C[C@H]3[C@@H]4CC=C5C[C@@H](N6CCCC6)CC[C@]5(C)[C@H]4CC[C@]3(C)[C@H]2O)cc(OC)c1OC` registered a TGI of 29.6 µM.

`C=CCOc1ccc(C2c3c([nH][nH]c3=O)CC(O)(OCC)C2C(=O)OCC)cc1OC` (stereo not given) registered a total growth inhibition concentration (TGI) greater than 100 µM.

`O=C(CCc1cccc(O)c1)NCCc1cccc(O)c1` gave a TGI greater than 100 µM.

With `CCCC1NC(C#N)(C#N)C(CCC)NC1(C#N)C#N` (stereo not given), the TGI was greater than 100 µM.

The compound `Brc1ccc2c(-c3nc(-c4c[nH]c5ccccc45)cs3)c[nH]c2c1` returned a TGI of 97.8 µM.

`CCc1nc(N)nc(N)c1-c1ccc(Cl)cc1`: the TGI was greater than 100 µM.

`Oc1nc(N/N=C/c2c[nH]c3ccccc23)[nH]c1/C=C1\C=Nc2ccccc21` showed a TGI greater than 100 µM.

With `CC(=O)O[C@@H]1C=CC(=O)C2(CC(=O)O[C@@H]2/C=C(\C)CCC=C(C)C)C1` (stereo not given in full), the GI50 was 2.15 µM and the TGI is 5.14 µM.

On to `CCN1CCC(C(=O)Nc2n[nH]c3nnc(-c4cccc(F)c4F)cc23)CC1`, for which the GI50 is 19.2 µM and the TGI was greater than 25 µM.

The compound `CN(Cc1c2ccccc2cc2ccccc12)S(=O)(=O)c1ccc(-c2c3nc(c(-c4ccc(S(=O)(=O)N(C)Cc5c6ccccc6cc6ccccc56)cc4)c4ccc([nH]4)c(-c4ccc(S(=O)(=O)N(C)Cc5c6ccccc6cc6ccccc56)cc4)c4nc(c(-c5ccc(S(=O)(=O)N(C)Cc6c7ccccc7cc7ccccc67)cc5)c5ccc2[nH]5)C=C4)C=C3)cc1` yielded a TGI greater than 100 µM.

In the case of `CC1(CCCC2(C)CCNC2=O)OCCO1` (stereo not given), the TGI was greater than 10 µM.

In turn, `CC(=O)NNc1nc(C)c(C(/C=C/c2ccc(/C=C/C(=N\NC(=O)c3ccncc3)c3sc(NNC(C)=O)nc3C)cc2)=N/NC(=O)c2ccncc2)s1` displayed a total growth inhibition concentration (TGI) greater than 100 µM.

In turn, `CC(=O)Oc1c(-c2ccccc2)[nH]c2cc([N+](=O)[O-])c(/C(Cl)=C/c3ccccc3)cc12` returned a TGI of 81.9 µM.

As to `COc1ccc(-c2oc3ccc(C)cc3c(=O)c2O)cc1`, the TGI was greater than 100 µM.

`COc1ccc(CCNc2nc3ccccc3c3[nH]c4ccccc4c23)cc1OC`: the GI50 was 2.27 µM and the TGI amounted to 5.38 µM.

Take `COc1ccc(NC(=O)CC/C(CC(=O)c2ccco2)=N/Nc2ccc([N+](=O)[O-])cc2[N+](=O)[O-])cc1`: the TGI is greater than 100 µM.

Turning to `O=C(Cn1ccnc1[N+](=O)[O-])NCCO`, the TGI is greater than 100 µM.

Consider `O=C(Nc1ccc(Cl)c(Cl)c1)Nc1ccc(Cl)c([N+](=O)[O-])c1`, for which the GI50 is 2.03 µM and the TGI turned out to be 7.72 µM.

Regarding `CC1=NN(c2cccc(Cl)c2)C2(C1)C(Cl)C(=O)N2c1nc2ccccc2s1` (stereo not given), the TGI is greater than 100 µM.

Turning to `Cc1nc2c(cnn2-c2ccnc3c(C(F)(F)F)cccc23)c(=O)o1`, the GI50 was greater than 100 µM and the TGI is greater than 100 µM.

Turning to `Nn1c(Cc2ccc(Cl)cc2)n[nH]c1=O`, the TGI is greater than 100 µM.

For the compound `Cc1nc2c(cc1C(=O)NN)c(=O)n(C)c(=O)n2C`, the TGI is greater than 100 µM.

`Cc1cc(S(=O)(=O)Nc2nc3ccsc3c(=O)n2N)c(S)cc1Cl` yielded a TGI greater than 100 µM.

On to `O=c1[nH]nc(-c2ccccc2)c(-c2ccccc2)c1-n1nc(-c2ccccc2)c2ccccc2c1=O`, for which the TGI was greater than 100 µM.

Compound `CC(C)(C)c1cc(C(O)(C(=O)O)C(=O)O)cc(C(C)(C)C)c1O` yielded a total growth inhibition concentration (TGI) greater than 100 µM.

Take `O=C1COC(c2ccccc2O)=NN1CCCN1CCCC1`: the TGI was greater than 100 µM.

Consider `CC1CN(CCO)CC(C)O1` (stereo not given), for which the TGI was greater than 100 µM.

Turning to `Cc1cc(O)c2c(c1)C[C@@H](O)C1=C2C(=O)c2c(O)ccc(OC3CC(O)C(OC4CC(OC5CCC(OC6CC(O)C(OC7CC(OC8CCC(O)C(C)O8)C(O)C(C)O7)C(C)O6)C(C)O5)C(O)C(C)O4)C(C)O3)c2C1=O` (stereo not given in full), the GI50 is 1.74 µM.

Consider `CCOC(=O)C1=CN=C2C(=O)N(c3ccccc3)N(C)C2(C)C1=N` (stereo not given), for which the TGI was greater than 100 µM.

`Cc1oc2nc1C(=O)NCc1nc(cs1)C(=O)N[C@H](C(C)C)c1nc(cs1)C(=O)N[C@H]2C`: the TGI is greater than 100 µM.

`CC(=O)Nc1ccc(S(=O)(=O)Nc2nnc(S(N)(=O)=O)s2)cc1` came in with a TGI greater than 100 µM.

For `CCOC(=O)C(=[N+]=[N-])C(=O)C[N+]12CCN(CC1)CC2`, the TGI is greater than 100 µM.

`COc1c(O)c2ccccc2c2cc(O)ccc12` returned a TGI of 39.1 µM.

Take `CC/C(Cl)=N\OC(=O)Nc1ccc(OC)cc1`: the TGI worked out at 31.1 µM.

Take `COc1ccc(CN2CCc3c(Cl)nc(N)nc3C2=O)c(OC)c1`: the GI50 is 17.9 µM and the TGI came out at 57.6 µM.

In the case of `Cc1ccc(CCC(=O)Nc2ncc(Cc3cc(Cl)ccc3Cl)s2)o1`, the GI50 is 0.825 µM and the TGI is greater than 100 µM.

As to `CCCSc1cc(Cl)c(C)cc1S(=O)(=O)n1ccnc1OCCCN(C)C`, the TGI is greater than 100 µM.

With `CCCCC/C=C1/CC(CO)(COC(=O)CC(C(C)C)C(C)C)OC1=O` (stereo not given), the TGI was determined as 35.8 µM.

With `Cc1ccc(S(=O)(=O)NCCCN(CCCNS(=O)(=O)c2ccc(C)cc2)S(=O)(=O)c2ccc(C)cc2)cc1`, the TGI is greater than 100 µM.

For the compound `CCOC(=O)c1ccc(-c2cc(C)[nH]n2)[nH]1`, the TGI was greater than 100 µM.

`C(=N\Nc1ncc(-c2cc3cc4c(cc3o2)OCO4)s1)/c1c[nH]c2ccccc12`: the GI50 is 3.37 µM and the TGI was 15.7 µM.

`O=c1ccc2nc(-c3ccccc3)nn(-c3ccccc3)c-2c1`: the GI50 is 16.9 µM and the TGI was 30.9 µM.

Regarding `CCOC(=O)C(C(=O)c1ccccc1-c1ccccc1C(=O)O)=P(c1ccccc1)(c1ccccc1)c1ccccc1`, the TGI amounted to 99.5 µM.

In turn, `CSc1nc2ccccc2c(=O)n1/N=C1\C(=O)N(CN2CCOCC2)c2ccc(Cl)cc21` had a total growth inhibition concentration (TGI) greater than 100 µM.

For the compound `C=Nc1ccc([N+](=O)[O-])cc1`, the TGI was greater than 100 µM.

The compound `Cc1cc2c(cc1-c1cc3c(cc1C)C(C(C)C)=C(O)C(=O)/C3=C\Nc1nc(-c3ccccc3)cs1)/C(=C/Nc1nc(-c3ccccc3)cs1)C(=O)C(O)=C2C(C)C` had a TGI greater than 100 µM.

In turn, `CC(=O)Nc1ccc2c(C(=O)O)c(C)c(=O)[nH]c2n1` displayed a TGI greater than 100 µM.

In the case of `COc1ccc(C(=O)/C=C/c2ccc(Cl)cc2)cc1S(N)(=O)=O`, the GI50 was 2.04 µM and the TGI is 8.1 µM.

`CCc1ccc(Cc2ccc(CC)c(NC(=O)C(=O)Cc3nc4ccccc4nc3C)c2CC)c(CC)c1NC(=O)C(=O)Cc1nc2ccccc2nc1C` had a TGI greater than 100 µM.

`Nc1ccc2c(c1)C1Oc3ccccc3CC1CO2` (stereo not given) displayed a TGI greater than 100 µM.

Consider `FC(F)(F)c1ccc2nc(-c3nc(-c4ccccc4)n4ccccc34)[nH]c2c1`, for which the GI50 was 3.35 µM and the TGI was found to be 12.6 µM.

`O=C1C=Cc2c(Cl)sc(Cl)c21` displayed a TGI of 29.4 µM.

Regarding `CCC12C=CCN3CC[C@]4(C(=C(C(=O)OC)[C@@H]1Nc1ncnc5c1ncn5C1OC(COC(C)=O)C(OC(C)=O)C1OC(C)=O)Nc1ccccc14)C32` (stereo not given in full), the TGI came out at 13.4 µM.

`C/C(O)=C/c1nc2ccccc2nc1/C=C(/C)O` displayed a TGI greater than 100 µM.

With `CN(C(=O)C12C3C4(C(=O)O)C1(C(=O)N(C)C(C)(C)C)C1C2(C(=O)O)C3(C(=O)N(C)C(C)(C)C)C14C(=O)N(C)C(C)(C)C)C(C)(C)C` (stereo not given), the TGI is greater than 100 µM.

In turn, `CN(C)CCCn1c(Cc2ccccc2)nc2cc(C(F)(F)F)ccc21` showed a TGI of 49.9 µM.

Take `Cc1ncc(C(=O)Nc2ccc(CN3CCN(C)CC3)c(C(F)(F)F)c2)cc1C#Cc1c(N)ncc2ccc(C#N)cc12`: the GI50 is 1.48 µM and the TGI came out at 10.9 µM.

In the case of `COc1ccc(C2SC(N)=Nc3c2c(C)nn3C(=O)c2ccncc2)cc1` (stereo not given), the TGI is greater than 100 µM.

Regarding `COc1ccc(C(=O)c2cc3c(N)c(C(=O)Nc4cccc(Cl)c4)sc3nc2C)cc1`, the GI50 was 1.92 µM and the TGI was greater than 33.3 µM.

As for `Nc1nc2nc3c(nc2c(=O)[nH]1)CN(c1ccc(C(=O)O)cc1)C3=O`, the TGI is greater than 100 µM.

For the compound `Cc1c2c(n3c(nc4ccccc43)c1C#N)SCC2`, the TGI is greater than 10 µM.

Compound `CC(C)NC(=O)OCc1nnn2c1C(OC(=O)NC(C)C)CC2` (stereo not given) displayed a TGI greater than 100 µM.

On to `C=C1C(=O)O[C@@H]2[C@@H]3O[C@@](C)(CC/C=C(\C)CCC[C@@H]2C)[C@H](O)C[C@@H]13`, for which the GI50 was 15.2 µM and the TGI worked out at 31.4 µM.

For the compound `NC(=O)C/C=C/CC(N)=O`, the TGI is greater than 100 µM.

As for `CCc1cc(C(N)=O)ccc1-n1nc(C(C)C)c2c(-n3cnc(-c4cnn(C)c4)c3)ccnc21`, the GI50 was 12.6 µM and the TGI is greater than 100 µM.

Turning to `Cc1c(C(=O)/C=C/c2ccco2)[n+](=O)c2ccccc2n1[O-]`, the TGI was greater than 100 µM.

In turn, `O=S(=O)(c1cc(Cl)ccc1Cl)N1CCN(S(=O)(=O)c2cc(Cl)ccc2Cl)CC1` had a TGI greater than 100 µM.

Take `COc1cc2c(cc1OC)C1CN3C(=O)CCC3C(O)C1c1cc(OC)c(OC)cc1-2` (stereo not given): the TGI was greater than 100 µM.

In turn, `CC(C)c1ccc2c(c1)CCC1C(C)(C)[C@@H](O)CC[C@]21C` (stereo not given in full) gave a TGI greater than 100 µM.

In the case of `CCCC(Sc1nc(N)nc2nc[nH]c12)C(=O)O` (stereo not given), the TGI is greater than 100 µM.

Compound `CN(C)CCCn1cnc2ncccc2c1=O` displayed a TGI greater than 100 µM.

`C=CCCc1cc(OC)ccc1CN(C)C(C)(C)CO`: the TGI is greater than 100 µM.

With `COC12C=C/C(=C(/C(=O)OCc3ccncn3)C(=O)CCCCCCCCC3(OC)C=C/C(=C(/C(=O)OCc4ccncn4)C(=O)CCCCCCCC1)O3)O2`, the GI50 was 0.74 µM and the TGI is 2.21 µM.

`CC(C)CC(=O)NC(Nc1ccc(S(=O)(=O)Nc2ncccn2)cc1)(C(F)(F)F)C(F)(F)F` gave a TGI greater than 100 µM.

The compound `CCCCC1(N=[N+]=[N-])C(=O)c2cccc3c2N(CCC3)C1=O` (stereo not given) displayed a TGI greater than 100 µM.

Regarding `COc1ccc2oc(S(=O)(=O)N3CC(CCl)c4ccc([N+](=O)[O-])cc43)cc2c1` (stereo not given), the TGI is greater than 94.4 µM.

`Cc1c(-c2ccccc2)c(C#N)c2nnn(-c3ccccc3)c(=O)n12`: the TGI is greater than 100 µM.

Regarding `Clc1ccc(Cl)c(N/N=C\c2c[nH]c3ccccc23)c1`, the GI50 was 13.2 µM and the TGI was 27.7 µM.

Take `Cc1c(CNc2ccc(Cl)c(C(=O)NC(CC(=O)O)C(=O)O)c2)ccc2nc(N)nc(N)c12` (stereo not given): the GI50 is 13.9 µM and the TGI is greater than 1000 µM.
